# Laboratory results reported in paper PMC12040169 (PLOS Biology, 2025).
# The other results are listed elsewhere or left out.
# System: T1, C. trachomatis L2/434/Bu expressing GFP (CTL2-GFP)
# T1 construct: L2/434/Bu GFP intracellular growth in HeLa cells
# Parameters: species or system HeLa; C. trachomatis total inclusion area by high-content imaging, normalised to DMSO
# Details: total inclusion area; 28.5 h, 10 µM; inhibitor
# Summary of the method: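 After bulk GFP and resorufin fluorescence reads, cells were fixed, stained with Hoechst and imaged by high-content microscopy. Inclusion area and number (GFP) stood in for chlamydial growth, nuclei count (Hoechst) for host cell viability. MICs were derived as for the bulk readout.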
row,Compound,% of control remaining
1,O=C(C[S+]([O-])c1ccc(C(F)(F)F)cc1[N+](=O)[O-])Oc1cccc2cccnc12 (stereo not shown) [CBK266716],76.225
2,COc1cc(CNc2nccnc2-c2cccnc2)cc(OC)c1 [CBK038061],81.4938
3,c1ccc2c(CCN3CCC[C@@H]3CN3CCCC3)c[nH]c2c1 [CBK149104],90.4804
4,N/C(CC(=O)Nc1cc(Cl)cc(Cl)c1)=N\O [CBK228614],59.8291
5,Cc1ccccc1Nc1nc(N)nc(CN2CCCC(C(F)(F)F)C2)n1 (stereo not shown) [CBK305073],32.9174
6,CCCCOc1ccc(-c2nnn(C(C)C(=O)OCC)n2)cc1 (stereo not shown) [CBK068558],93.8201
7,O=C(Nc1sc2c(c1C(=O)NCc1cccnc1)CCCC2)c1sc2ccccc2c1Cl [CBK266334],112.476
8,O=C(c1ccco1)N1CCCC(n2c(=O)oc3ccc(Cl)cc32)C1 (stereo not shown) [CBK282892],108.937
9,O=C(CSc1cc(Cl)ccc1Cl)Nc1cccc(Cl)c1 [CBK263712],80.7861
10,CC(C)Oc1ccc(C(=O)N2CCN(c3ccccc3)CC2)cc1 [CBK305847],56.6075
11,COc1ccc([N+](=O)[O-])cc1N1CCN(C(=O)OC(C)(C)C)CC1 [CBK003504],83.7811
12,COc1nc(N)nc2c1ccn2C1CC(O)C(CO)O1 (stereo not shown) [CBK201177],74.2585
13,C=Cn1ncc(CN2CCN(C3CCCCC3)C(=O)C2)c1C [CBK282526],134.585
14,O=C(NC(C(=O)N/N=C/c1cccc(O)c1)c1n[nH]c(=O)c2ccccc12)c1ccccc1 (stereo not shown) [CBK262853],66.03
15,COc1ccc(CCNc2c(Cc3ccccc3)c(C)c(C#N)c3nc4ccccc4n23)cc1OC [CBK263135],99.6474
16,CCCCCOc1ccc(Nc2cc(-c3ccco3)ncn2)cc1 [CBK090892],68.3743
17,CCCCc1c(C(=O)O)cc(OC)cc1C(=O)O [CBK217866],95.0268
18,COc1ccc(S(=O)(=O)NC[C@H]2C[C@@H]3CC[N@]2C[C@@H]3CN2CCSCC2)cc1 [CBK288769],98.4227
19,O=C(CCSc1nnnn1-c1ccc(C(=O)O)cc1)Nc1ccc(F)cc1 [CBK300497],70.4018
20,CC(=O)N1c2ccc(NC(=O)C3(C)CCCO3)cc2CC1C (stereo not shown) [CBK282702],118.356
21,CCCNc1cc(-c2cccc(Cl)c2)nc2ccnn12 [CBK037747],113.043
22,Cc1ccc(O)c(NC(=O)c2nc3ncccn3n2)c1 [CBK267629],104.244
23,Cc1n[nH]c(=S)n1-c1ccc(Cl)cc1 [CBK012457],49.2752
24,COc1ccc(CC(=O)N2CCNC(=O)C2Cc2ccccc2-c2ccccc2)cc1OC (stereo not shown) [CBK285827],119.38
25,Clc1cc(-c2cnc3ccccc3n2)c(Cl)s1 [CBK006186],107.625
26,COc1cc(C(=O)Nc2cc(-c3nc4ncccc4o3)ccc2C)ccc1OCc1ccc(Cl)cc1 [CBK264704],100.01
27,O=C(Nc1ccc2[nH]ccc2c1)c1ccc(F)c(F)c1 [CBK159683],110.453

row,Compound,% of control remaining
1,CCc1ccc(Oc2c[nH]nc2-c2ccc(OCc3cnn(-c4ccccc4)c3)cc2O)cc1 [CBK266233],103.3
2,COc1ccc(-c2cc(C(=O)NCCc3c[nH]c4ccccc34)cnc2-c2ccc(F)cc2)cn1 [CBK036649],119.873
3,CC(C)(C)C(=O)NC1(C(F)(F)F)N=C(c2ccccc2)NC1=O (stereo not shown) [CBK267475],107.551
4,CCc1c(C)sc(NC(=O)C2CCC2)c1C(=O)NCc1cccnc1 [CBK307414],86.3661
5,Cc1ccc(CNC(=O)c2nnc(C(=O)Nc3cccc(Cl)c3)s2)o1 [CBK294404],63.4864
6,Cc1nc(C)c(C(=O)N2Cc3ccccc3C2)s1 [CBK200326],124.205
7,Cc1ccc(-n2c(C)cc(/C=N/NC(=O)c3ccc(CN4CCOCC4)cc3)c2C)cc1 [CBK263324],119.888
8,C=CCn1ncc(CN(CCN(C)C)Cc2ccc(C)o2)c1C [CBK282846],121.582
9,O=C(/C=C/c1cn(-c2ccccc2)nc1-c1cccnc1)c1ccc(-c2ccccc2)cc1 [CBK263213],95.3052
10,COc1ccc(C(C)(C)C)cc1S(=O)(=O)NC1CC(C)(C)NC(C)(C)C1 [CBK267865],104.177
11,CC1(C(=O)O)NC(c2ccccc2O)C2C(=O)N(c3ccccc3[N+](=O)[O-])C(=O)C21 (stereo not shown) [CBK264979],99.8657
12,N#Cc1ccc(CSc2nnc(COc3ccccc3)n2Cc2ccco2)cc1 [CBK267539],111.514
13,O=C(O)C1CC(=O)N(c2cccc3ccccc23)C1 (stereo not shown) [CBK286902],124.651
14,O=C(NCC1(c2ccccc2)CCCC1)c1ccc(NC(=O)C2COc3ccccc3O2)cc1 (stereo not shown) [CBK266558],87.8814
15,CS(=O)(=O)NC1CCN(S(=O)(=O)c2cc(Cl)cc(Cl)c2)CC1 [CBK306082],51.6434
16,OCc1cccc(-c2cncc(N3CCN(CCN4CCCC4)CC3)n2)c1 [CBK066136],97.5243
17,Cc1cccc(OCC(=O)N2CCN(Cc3ccccn3)CC2)c1 [CBK134023G],92.1061
18,O=c1n(Cc2ccncc2)nc(C(F)(F)F)c2cccn12 [CBK283966],104.695
19,O=C(O)c1ccc(NS(=O)(=O)c2ccc3ccccc3c2)cc1 [CBK034053],99.7592
20,CC1CCc2nn(CCNC(=O)c3cccs3)c(=O)cc2C1 (stereo not shown) [CBK284483],107.671
21,Cc1sc2nc(C(C)N(C)Cc3cc[nH]n3)[nH]c(=O)c2c1C (stereo not shown) [CBK306275],45.4066
22,OC(CSc1ccccc1)CN1CCN(C(c2ccccc2)c2ccccc2)CC1 (stereo not shown) [CBK074683],84.2456
23,Cc1nc(C)n(CC2CCCN(Cc3ccccc3C#N)C2)n1 (stereo not shown) [CBK305085],82.2244
24,COCCNS(=O)(=O)c1cc(OCC(N)=O)c(C)cc1Cl [CBK266461],89.3235
25,CCC(=O)N1CCC(NC(=O)N(CCc2ccccn2)Cc2ccccc2)CC1 [CBK171898],62.9102
26,O=C(NCc1ccccc1)c1ccccc1NS(=O)(=O)c1ccccc1F [CBK113881],81.4124
27,CCc1ocnc1C(=O)NC1CCN(c2ncccc2C#N)CC1 [CBK306935],77.9978

row,Compound,% of control remaining
1,Fc1ccc(-c2cncc(NCc3ccncc3)n2)cc1Cl [CBK065343],130.644
2,CC(=O)N1CCN(c2ccc(NC(=O)c3cccc4c(Br)cccc34)cc2Cl)CC1 [CBK269624],90.2011
3,N#Cc1ccc(NC(=O)CCn2cnnn2)cc1 [CBK269832],56.8286
4,COc1ccc(Br)cc1CN(CCc1ccc2c(c1)OCO2)Cc1cccnc1 [CBK263327G],82.5964
5,O=C(CN1C(=O)S/C(=C\c2ccc(Cl)cc2)C1=O)Nc1cc([N+](=O)[O-])ccc1O [CBK262396],104.721
6,CC(=O)Nc1cccc(C(=O)O)c1Cl [CBK038814],77.4915
7,O=C(NC[C@H]1C[C@@H]2CC[N@]1C[C@@H]2CN1CCN(c2ncccn2)CC1)Nc1ccsc1 [CBK289117],84.7277
8,CC(NC(=O)N1CCCN(Cc2ccccn2)CC1)c1cnn(C)c1 (stereo not shown) [CBK307537],56.3169
9,Cc1nc(S)nc(O)c1Cc1ccc(C(=O)O)o1 [CBK266284],89.2888
10,COC(=O)[C@H]1CN(C(=O)C2CC(=O)N(C)C2)C[C@@H]1c1ccc(F)cc1 (stereo partly shown) [CBK283521],108.325
11,COc1ccc(NC(=O)C(C)n2nc(C(=O)O)c3ccccc3c2=O)cc1 (stereo not shown) [CBK295322],67.9421
12,Cc1ccccc1C(=O)Nc1cccc(-c2nnc(SCC(=O)c3ccc(Cl)cc3)n2C)c1 [CBK264053],108.347
13,Cc1cc(CC(=O)NCCCn2ccnc2C(C)C)on1 [CBK307270],38.6189
14,N#C/C(=C\c1ccc(-c2ccc(C(=O)O)cc2)o1)C(=O)NCc1ccco1 [CBK263322],100.809
15,N#Cc1ccnc(N2CCN(CC(=O)NCC(F)(F)F)CC2)c1 [CBK305042],101.007
16,CC1c2ccsc2CCN1C(=O)CC(NC(N)=O)c1cccc(Br)c1 (stereo not shown) [CBK305635],38.1657
17,Nc1cccc(-c2nc(NC(=O)Cc3ccccc3)cnc2-c2ccc(F)cc2)c1 [CBK037550],119.268
18,O=C1CSC2c3ccccc3C(=O)N2c2ccccc21 (stereo not shown) [CBK113670],98.3329
19,O=C(Nc1ccc(C(F)(F)F)cc1)C1=C(O)CN(c2ccc(Cl)cc2)C1=O [CBK017603],93.5875
20,COc1ccccc1-c1ccc(C(=O)N(C)CCN(C)C)c(N(C)C)n1 [CBK106075],87.9627
21,O=C(NC1CCCOC1)c1cnn(-c2ccc(F)cc2)c1 (stereo not shown) [CBK283248],105.078
22,CN(C)CCCNC(=O)C1CCN(c2nc3c(-c4ccccc4F)csc3c(=O)[nH]2)CC1 [CBK215438],90.2763
23,CC(C)(CO)Cn1c(=O)[nH]c2ncc(-c3ccco3)nc21 [CBK064721],73.6092
24,c1csc(-c2nccnc2OCC2COc3ccccc3O2)c1 (stereo not shown) [CBK107063],94.8218
25,N#Cc1ccc(-c2cnc(N)c(-c3ccc(C(=O)N4CCOCC4)cc3)n2)cc1 [CBK064067T],80.4831
